Experimental data as given in PMC4336329 (PLoS ONE, 2015).
The campaign covered roughly 310,000 compounds. About 2,200 (0.71%) showed an effect of 50% or more. The effect is printed as a negative number. The list shows a part of the results.

These molecules were tested against human ether-à-go-go-related gene (hERG) potassium channel (human, UniProt Q12809) (assay: primary screen, population patch clamp on CHO cells stably expressing hERG).
human ether-à-go-go-related gene (hERG) potassium channel, sequence (Q12809 whole entry, looked up): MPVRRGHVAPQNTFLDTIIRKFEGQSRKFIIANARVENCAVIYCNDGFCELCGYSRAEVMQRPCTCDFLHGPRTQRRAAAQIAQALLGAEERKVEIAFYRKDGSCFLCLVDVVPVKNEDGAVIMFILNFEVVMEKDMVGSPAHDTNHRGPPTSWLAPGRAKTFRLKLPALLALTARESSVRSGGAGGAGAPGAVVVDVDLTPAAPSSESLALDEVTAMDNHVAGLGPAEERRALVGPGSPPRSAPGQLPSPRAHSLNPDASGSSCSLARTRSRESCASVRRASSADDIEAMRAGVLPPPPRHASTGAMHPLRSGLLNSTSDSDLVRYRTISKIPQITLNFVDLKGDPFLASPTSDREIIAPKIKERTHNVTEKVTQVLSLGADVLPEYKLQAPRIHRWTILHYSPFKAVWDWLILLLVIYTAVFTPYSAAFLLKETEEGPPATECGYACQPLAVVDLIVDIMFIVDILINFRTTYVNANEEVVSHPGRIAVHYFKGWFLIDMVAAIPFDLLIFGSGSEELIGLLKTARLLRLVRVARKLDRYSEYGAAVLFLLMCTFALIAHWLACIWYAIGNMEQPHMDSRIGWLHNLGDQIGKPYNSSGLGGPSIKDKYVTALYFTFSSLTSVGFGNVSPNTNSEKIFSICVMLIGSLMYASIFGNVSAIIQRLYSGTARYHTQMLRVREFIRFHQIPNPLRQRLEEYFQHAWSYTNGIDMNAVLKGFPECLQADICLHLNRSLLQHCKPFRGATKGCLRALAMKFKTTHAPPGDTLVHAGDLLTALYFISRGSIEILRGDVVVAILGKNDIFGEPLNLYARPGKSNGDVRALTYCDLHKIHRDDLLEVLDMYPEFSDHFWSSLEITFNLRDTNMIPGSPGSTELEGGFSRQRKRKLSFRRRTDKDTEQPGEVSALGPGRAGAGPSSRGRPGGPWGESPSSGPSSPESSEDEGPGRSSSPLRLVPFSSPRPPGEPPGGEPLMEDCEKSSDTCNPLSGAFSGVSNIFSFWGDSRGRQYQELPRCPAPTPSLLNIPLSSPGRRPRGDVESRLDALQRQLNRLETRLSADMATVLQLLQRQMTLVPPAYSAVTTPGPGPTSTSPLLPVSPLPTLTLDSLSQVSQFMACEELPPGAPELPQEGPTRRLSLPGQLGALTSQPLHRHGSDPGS

Row | SMILES | hERG current change (%, negative = inhibition) at 1uM [%]
1 | CC(C)CCNC(=O)c1cc(C(=O)c2cc(Br)ccc2O)cn(CCC(C)C)c1=O | 15.7
2 | COc1ccc(CN2C(=NC(=O)C3CCCO3)SC3CS(=O)(=O)CC32)cc1OC (stereo not drawn) | 15.5
3 | CCOC(=O)c1cnc2c(-c3ccccc3OC)c(C)nn2c1C | 8.89
4 | CN(C)CCNC(=O)C(C(=O)c1ccccc1)n1ccccc1=O.Cl (stereo not drawn) | 12.7
5 | CCOc1cc(S(=O)(=O)NCc2ccccn2)ccc1Cl | 6.33
6 | COc1ccccc1-c1nnc(SCC(=O)c2c(N)n(C3CC3)c(=O)[nH]c2=O)n1C | 10.8
7 | COC(=O)Cn1cc(C(=O)C(F)(F)F)c2ccccc21 | 15.7
8 | Cc1cccc(NC(=O)c2ccc(NC(C)c3ccccc3)c([N+](=O)[O-])c2)n1 (stereo not drawn) | 10
9 | COc1ccccc1-c1nn(-c2ccccc2)cc1C(=O)N1CCN(C(=O)c2ccco2)CC1 | -2.77
10 | Cl.OCCCCCNc1ncnc2ccccc12 | 5.49
11 | NNC(=O)CN1CCN(c2ncc(C(F)(F)F)cc2Cl)CC1 | 6.48
12 | Cc1cccc(C(=O)Nc2ccc(C(=O)c3ccccc3)cc2)c1 | 7.65
13 | COC(=O)Cc1cc(=O)oc2cc(OC)ccc12 | 7
14 | Cc1ccc(S(=O)(=O)N2CCOCC2)cc1C(=O)Nc1ccncc1 | -11.3
15 | CC(=O)OCC1=C(C(=O)O)N2C(=O)C(NC(=O)c3ccc(COc4cccc(Cl)c4Cl)o3)C2SC1 (stereo not drawn) | 12.5
16 | Cc1onc(-c2ccccc2)c1C(=O)OCc1nnc(-c2ccccc2)o1 | 5.73
17 | COc1ccc(C(=O)Nc2ccnn2C2CCN(Cc3ccc4nonc4c3)CC2)cc1 | -0.334
18 | O=S(=O)(/N=C(/c1ccc(Cl)cc1)N1CCOCC1)c1ccc(Cl)cc1 | 4.89
19 | Fc1ccc(-c2nnc(CN3CCN(c4ncc(C(F)(F)F)cc4Cl)CC3)o2)cc1 | -6.39
20 | Cc1ccsc1/C=C(\C#N)C(=O)NCc1cccnc1 | -1.62
21 | CSCCC(NS(=O)(=O)c1ccc(C)cc1)C(=O)NCCc1c[nH]c2ccccc12 (stereo not drawn) | 8.53
22 | CSc1nc(N(C)NC(=O)c2ccc(Cl)cc2)c2ccccc2n1 | -0.805
23 | Cc1cccc(OCc2nnc(SCC(=O)N3c4ccccc4CCc4ccccc43)o2)c1 | 5.88
24 | CCNc1nc(OCCNS(=O)(=O)c2cc(C)ccc2C)nc(N(C)C)n1 | 7.78
25 | CC(NC(=O)c1cccc(S(=O)(=O)N2CCN(C)CC2)c1)c1ccc(Cl)cc1Cl (stereo not drawn) | 5.66
26 | COc1ccc(CCNc2nc(C)nc3c2oc2ccccc23)cc1OC | 12.4
27 | O=C(NCCCN1CCCC1=O)NC1CCCCC1 | 7.21

Row | SMILES | hERG current change (%, negative = inhibition) at 1uM [%]
28 | O=C(Nc1ccccc1C(=O)N1CCN(CCO)CC1)c1cccc([N+](=O)[O-])c1 | 16.1
29 | C=CCn1c(SCC(=O)N2N=C(c3ccco3)CC2c2ccco2)nnc1-c1ccncc1 (stereo not drawn) | -9.35
30 | Cc1ccc(-c2csc(N(CCO)CCCn3c(C(F)(F)F)nc4ccccc43)n2)cc1 | 13.2
31 | CCOC(=O)Nc1ccc2c(c1)N(C(=O)CCN(C)C)c1ccccc1CC2 | -7.48
32 | COC(=O)C1CCN(C(=O)COC(=O)c2cc(-c3cccs3)nn2-c2ccccc2)CC1 | 2.56
33 | O=C(CN1C(=O)c2ccccc2S1(=O)=O)N1CCCCC1 | 15.2
34 | CCOC(=O)N1CCN(C(=O)C2CCCN(S(=O)(=O)c3c(C)cc(C)cc3C)C2)CC1 (stereo not drawn) | 6.76
35 | O=C(CCC1N=C2c3ccccc3N=C(SCc3ccc(Cl)cc3)N2C1=O)NCc1ccco1 (stereo not drawn) | 2.6
36 | CCn1c2ccc(OC)cc2c2nc3ccccc3nc21 | 0.563
37 | CN(C)c1cc(-c2ccc(C#N)cc2)oc(=O)c1Cl | -20.3
38 | COc1cccc2c1Oc1cc([N+](=O)[O-])cc(N(C)C(C)=O)c1C=C2 | 15.2
39 | O=C(COC(=O)CNC(=O)c1ccc2c(c1)OCO2)Nc1ncc(Cl)cc1Cl | -5.37
40 | O=C(Nc1ccccc1OC(F)F)c1cccc(S(=O)(=O)N2CCCC2)c1 | 9.81
41 | Cc1cc(N2CCN(c3ccccn3)CC2)n2nc(C)nc2n1 | -15.8
42 | O=C(Cn1cc2c(n1)CCCCC2)N1CCc2ccccc21 | 12.6
43 | CN(CC(=O)Nc1ccc(F)cc1)C(=O)COC(=O)Cc1cccs1 | -4.63
44 | O=S(=O)(c1ccccc1F)N1CCN(Cc2cc3c(cc2Br)OCCO3)CC1 | 10.6
45 | CCOCCCn1c(SCC(=O)NC(C)C)nc2ccccc2c1=O | 2.33
46 | Cc1cc(C)cc(NC(=O)Nc2cccc(S(N)(=O)=O)c2)c1 | -10.8
47 | Cc1nc(-c2ccccc2)sc1C1(C)CC(c2ccccc2F)=NO1 (stereo not drawn) | 1.3
48 | CCCC(=O)Nc1cc(C(F)(F)F)ccc1N1CCOCC1 | 10.2
49 | Cc1ccc(OCCn2ccnc2)c([N+](=O)[O-])c1 | 8.99
50 | O=C(c1cc(COc2ccc(F)cc2F)on1)N1CCSCC1 | 6.36
51 | COc1cc2c(=O)n(CC3CCCO3)c(=O)n(CC(=O)Nc3ccccc3)c2cc1OC (stereo not drawn) | 6
52 | CCc1ccc(OCC(=O)Nc2ccc3c(c2)OCCO3)cc1 | 7.23
53 | C=C[C@]1(C)C[C@@H](OC(=O)CSCCN(CC)CC)[C@]2(C)C(C)CC[C@]3(CCC(=O)[C@H]32)[C@@H](C)[C@@H]1O (stereo partly drawn) | -9.71
54 | CC[N+]12CCC(CC1)C(C(O)(c1ccccc1)c1ccccc1)C2.[Br-] (stereo not drawn) | 7.76
